Source: PubChem BioAssay AID686970 (National Center for Advancing Translational Sciences (NCATS), 2013)
Among all 360,000 compounds or so, about 6,000 (1.7%) were called active. This list was built around the results that the source calls inconclusive (neither active nor inactive); the mix of calls is not that of the screen. Calls come from the whole dose curve; as a rule, active = well fitted cell-killing curve with a large enough effect; inconclusive = small, poorly fitted or top-dose-only effect, or effect the other way; inactive = flat fitted curve, though single readings scatter. Potencies of inconclusive entries are left out as doubtful fits.
Potency is the fitted concentration of half-maximal effect; tags give direction and shape of the fitted curve.

Assay: qHTS for induction of synthetic lethality in tumor cells producing 2HG: qHTS for the HT-1080-NT fibrosarcoma cell line;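 note: NT is the 2HG producing partner of a matched IDH1 knockdown line; nearly all actives have a fitted effect of over 55% in size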;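 for activity, negative = less viability: 0% = DMSO-treated cells and -100% = media-only wells without cells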
Conditions: HT-1080-NT fibrosarcoma viability, CellTiter-Glo ATP luminescence, 48 h; activity, negative = less viability: at 46.1 µM (top of the series) unless noted
In short: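 Read-out is CellTiter-Glo luminescence after 10 minutes at room temperature, following 48 hours' compound treatment of HT-1080-NT cells (750 cells/well, RPMI, 5% FBS, 37 degrees C).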
With CC1=NNC(=O)/C1=C\c1cn(-c2ccccc2)nc1-c1ccccc1 the Potency was active: 16.4 µM.
With O=c1c2ccccc2oc2cc(-c3ccc4[nH]ccc4c3)ccc12 the Potency was inconclusive [cytotoxic, full curve].
With Cc1nn(-c2ccccc2)c(N2CCCC2)c1/C=N/NC(=O)c1ccccc1O the Potency was “inactive”.
For Cc1nc(N)nc(N)c1-c1ccc(Cl)c(Cl)c1, the Potency was inconclusive [cytotoxic, full curve].
In the case of CC(=O)c1ccc(N2CCN(C(=O)c3ccc4[nH]c(C)c(C)c4c3)CC2)cc1, the Potency is reported as inconclusive [cytotoxic, single point].
For COc1ccc(S(=O)(=O)NCCOc2cccc3cccnc23)cc1OC, the Potency was “inactive”.
In the case of CC1(C)CC(=O)C2=C(C1)NC(SCC(=O)Nc1ccccc1)=C(C#N)C21CCCCC1, the Potency is reported as inconclusive [cytotoxic, partial curve].
In the case of CCOc1cc(C=NNC(=O)N(c2ccccc2)c2ccccc2)ccc1O, the Potency is reported as inconclusive [cytotoxic, single point].
With O=[N+]([O-])c1cccc(-c2ccc(/C=N/NC(=S)Nc3cccc(F)c3)o2)c1 the Potency was inconclusive [cytotoxic, single point].
For CCCSc1cc(N2CCN(C)CC2)nc(-c2ccc(OC)cc2)n1, the Potency was inconclusive [cytotoxic, single point].
In the case of Cc1cc(NC(=O)Nc2ccc(Cl)c(Cl)c2)n(-c2ccccc2)n1, the Potency is reported as inconclusive [cytotoxic, single point].
With Cc1cc2c(cc1C)C(c1ccccc1F)CC(=O)N2 (stereo not drawn) the Potency was inconclusive [cytotoxic, partial curve].
With CC12CCC(C(=O)NNc3ccccc3)(C(=O)C1=O)C2(C)C (stereo not drawn) the Potency was inconclusive [cytotoxic, partial curve].
For O=C(OCC(=O)N1CCc2ccccc21)c1c2c(nc3ccccc13)CCCC2, the Potency was “inactive”.
For O=C(N/N=C/c1cccs1)C1COc2ccccc2O1 (stereo not drawn), the Potency was inconclusive [cytotoxic, single point].
With O=c1c(Cl)c(N2CCCCC2)cnn1-c1nc2ccccc2[nH]1 the Potency was inconclusive [cytotoxic, single point].
In the case of CC1=NN(C(=O)Cc2ccc([N+](=O)[O-])cc2)C(O)(c2ccccc2)C1 (stereo not drawn), the Potency is reported as inconclusive [cytotoxic, partial curve, poor fit].
In the case of C=CCCC(=O)Nc1ccc(Br)cn1, the Potency is reported as inconclusive [cytotoxic, single point].
In the case of N/C(=N\O)c1cn(Cc2ccccc2Cl)c2ccccc12, the Potency is reported as inconclusive [cytotoxic, partial curve, poor fit].
With COc1ccc(NC(=O)Nc2nc(C(N)C3CCCCC3)cs2)cc1 (stereo not drawn) the Potency was inconclusive [cytotoxic, single point].
With O=C(N/N=C/c1ccccc1O)C1CC(=O)N(c2ccc(F)cc2)C1 (stereo not drawn) the Potency was inconclusive [cytotoxic, partial curve, poor fit].
With CCC(c1nnnn1-c1ccc2c(c1)OCCO2)N1CCN(c2ccccc2OC)CC1 (stereo not drawn) the Potency was “inactive”.
For COc1cc(-c2cc3nc(NCCOc4ccccc4)ccn3n2)cc(OC)c1OC, the Potency was active: 20.6 µM.
For COC(=O)N/N=C/c1cn(CCOc2ccccc2OC)c2ccccc12, the Potency was “inactive”.
In the case of COc1ccccc1-c1cc(C(F)(F)F)nc(S(=O)(=O)CCCC(=O)Nc2cccnc2Cl)n1, the Potency is reported as active: 14.6 µM.
For CCOC(=O)Nc1ccc2c3c(cccc13)-c1ccccc1-2, the Potency was inconclusive [cytotoxic, partial curve].
In the case of COC(=O)C(C(C)=O)C1=C/C(=N\S(=O)(=O)c2ccc(C)cc2)c2ccccc2C1=O (stereo not drawn), the Potency is reported as inconclusive [cytotoxic, single point].
With CCC(NC(=O)c1ccc2nc(Cc3ccc(OC)cc3)oc2c1)c1ccncc1 (stereo not drawn) the Potency was inconclusive [cytotoxic, single point].
For O=C(O)c1ccccc1OCCN1CCCC1=O, the Potency was inconclusive [rising, single point].
For CN1CCCC1=Nc1ccccc1, the Potency was “inactive”.
In the case of Cc1cccc(-c2cc3nc4c(c(N5CCCC(O)C5)n3n2)CCC4)c1 (stereo not drawn), the Potency is reported as inconclusive [cytotoxic, single point].
In the case of Cc1sc(NC(=O)CSc2nnc(COc3ccc(Cl)cc3)n2C)c(C#N)c1C, the Potency is reported as inconclusive [cytotoxic, partial curve].
In the case of Cc1cc(C)nc(NS(=O)(=O)c2ccc(NC(=O)c3cc(-c4ccccc4)nc4ccccc34)cc2)n1, the Potency is reported as inconclusive [cytotoxic, partial curve].
For Cc1cc(C)nc(N/N=C2/CCCC/C2=C\c2ccccc2)n1, the activity, negative = less viability was inconclusive: -29.3% [cytotoxic].
In the case of COc1cccc(-c2ccc(C#N)c(SCC(=O)NCCc3ccc(Cl)cc3)n2)c1, the activity, negative = less viability is reported as inconclusive: -34.5% [cytotoxic].
For COc1ccc(Cc2nc3ccc(C(=O)NC(C)c4cnn(C)c4)cc3o2)cc1 (stereo not drawn), the Potency was “inactive”.
In the case of COc1ccc(NC(=S)NC(NC(=O)/C=C/c2ccccc2)C(Cl)(Cl)Cl)cc1 (stereo not drawn), the Potency is reported as inconclusive [cytotoxic, partial curve].
With Cc1ccc(CS(=O)(=O)c2ccc(C(=O)N3CCN(c4ccccn4)CC3)cc2[N+](=O)[O-])cc1 the Potency was inconclusive [cytotoxic, partial curve, poor fit].
For COc1ccc2[nH]c3c(Cl)ncnc3c2c1, the Potency was inconclusive [cytotoxic, single point].
In the case of Cc1cc(C)n(CC(=O)N/N=C/c2ccc([N+](=O)[O-])s2)n1, the activity, negative = less viability is reported as inconclusive: -30.5% [cytotoxic].
For CCOC(=O)c1c(-c2ccccc2)csc1NC(=O)C(C)NCCCN1CCOCC1 (stereo not drawn), the Potency was inconclusive [cytotoxic, single point].
With Cc1cc(C)cc(-n2cccc2/C=C2/C(=N)N3C(=NC2=O)SN=C3S(C)(=O)=O)c1 the Potency was active: 18.4 µM.
For COc1ccc(N=Cc2c(O)ccc3ccccc23)cc1, the Potency was inconclusive [cytotoxic, single point].
